Reference: PubChem BioAssay AID1347417 (National Center for Advancing Translational Sciences (NCATS), 2020)
Screen size: about 120,000 compounds; about 5,300 (4.4%) were called active. Inconclusive means that the source gave no clear call. Such entries were picked first, then a sample of the others. The call rests on the fitted dose curve; in most records, active means well fitted inhibition curve with a large enough effect; inconclusive means small, poorly fitted or top-dose-only effect; inactive means no such curve, though single readings can be large or run the other way. Potencies beside an inconclusive call are fits to weak or partial responses and may not hold up.

experiment: qHTS Primary assay for Inhibitors of Plasmodium falciparum Dd2 growth in vitro; further: nearly all actives have a fitted effect of over 65% in size;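 on activity, negative = inhibition: plate controls were DMSO vehicle for no effect and reference drug for full effect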; details: P. falciparum Dd2 growth, SYBR Green, 72 h; activity, negative = inhibition: at 28.9 µM (top of the series) unless noted; series mostly up to 28.9 µM
How it was run: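 Readout: SYBR Green fluorescence, 485 nm excitation, 535 nm emission, after ~16 h lysis at 37C. Before that, Dd2-infected red cells (2.5% hematocrit) grew 72 h with compound, 29 uM top final concentration.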
Potency means the concentration at half of the fitted maximal effect; tags describe the fitted curve by direction and shape.

SMILES | activity, negative = inhibition | Potency | outcome
O=C(NC1CC1)[C@@H]1CN(Cc2cccnc2)C[C@H]1CO | inactive: 12.5% | – | –
CCc1c(C)sc2c1CCN(Cc1ccccc1C#N)C2c1ccccc1 (centres undefined) | – | inconclusive: 12.6 µM [inhibitor, single point] | –
Cc1nc(S(=O)(=O)N2CCC(Cc3noc(-c4ccccc4)n3)C2)cn1C (centres undefined) | – | inconclusive: 10 µM [inhibitor, single point] | –
Cc1cnc(C2CCOCC2)n1C1CCN(C(=O)C(C)Oc2ccccc2)CC1 (centres undefined) | – | inconclusive: 20 µM [inhibitor, single point] | –
CCc1ccc(C(=O)c2cn(CC(=O)Nc3cc(OC)ccc3OC)c3ccc(Cl)cc3c2=O)cc1 | – | inconclusive: 10 µM [inhibitor, single point] | –
C[C@H]1CCCN1C(=O)c1nnc(COc2ccc3cccnc3c2)n1-c1cccnc1 | inactive: -24.7% [at 44.1 µM] | – | –
CCN(CC)S(=O)(=O)c1ccc2c(c1)N(CC(=O)NCCCN1CCN(c3ccc(OC)cc3)CC1)C(=O)CO2 | – | inconclusive: 17.8 µM [inhibitor, single point] | –
CCOC(=O)c1cc(-c2ccccc2)n(CCC(=O)NCCc2ccccc2)c1C | – | inconclusive: 15.8 µM [inhibitor, single point] | –
COc1cccc(-c2nccc3c(=O)cc(N(C)C)oc23)c1 | – | inconclusive: 17.8 µM [inhibitor, partial curve, poor fit] | –
O=C(Nc1ccc(Cl)cc1)NC1CCCN(c2nc3ncccc3o2)C1 (centres undefined) | – | inconclusive: 15.8 µM [inhibitor, partial curve, poor fit] | –
CCOC(=O)c1cnc2ccc(OC)cc2c1Nc1ccc(OCc2ccccc2Cl)cc1 | – | inconclusive: 11.2 µM [inhibitor, single point] | –
COCCN1CCNc2nc(CNCc3cccc(Cl)c3)n(Cc3ccccc3)c2C1=O | – | – | inactive
CCc1ccc(C(=O)NC2CCN(c3cc(-c4ccccc4)[nH]n3)CC2)cc1 | – | – | inactive
Cc1cccc(N2CCN(C(=O)c3ccc4c(c3)N(C(=O)c3ccccc3)CC4)CC2)c1C | – | inconclusive: 2.24 µM [inhibitor, partial curve, poor fit] | –
CCOc1ccc(Nc2sc(C(=O)c3ccc4c(c3)OCO4)c(N)c2S(=O)(=O)c2ccc(C)cc2)cc1 | – | inconclusive: 1.12 µM [inhibitor, single point] | –
CN1CCC2(CCC1=O)CN(C(=O)CCc1ccc3c(c1)OCO3)CCN2C (centres undefined) | inactive: -10.3% | – | –
COc1ccc(-c2cc(C(F)(F)F)nc(NCc3ccc(Cl)cc3)n2)cc1 | – | inconclusive: 17.8 µM [inhibitor, single point] | –
CCCCOC(=O)c1ccc(N2CC3CCC(C2)N3CC(F)(F)F)nn1 | inactive: -3.13% | – | –
Cc1ccc(S(=O)(=O)N2CCN(C3CCN(Cc4ccccn4)C3=O)CC2)cc1F (centres undefined) | – | inconclusive: 11.2 µM [inhibitor, partial curve] | –
Cc1cc(Cl)c2oc(C(=O)N(Cc3c(C)nn(C)c3C)C3CC3)c(C)c2c1 | – | inconclusive: 20 µM [inhibitor, partial curve, poor fit] | –
Cc1cc(C)n(CC(=O)N2C[C@@H](Oc3ccccc3)C[C@H]2C(=O)N2CCCC2)n1 | – | inconclusive: 8.91 µM [inhibitor, partial curve, poor fit] | –
Cc1ccccc1Cn1c2ccccc2c2cnn(CC(=O)NCCCc3ccccc3)c(=O)c21 | – | inconclusive: 11.2 µM [inhibitor, single point] | –

SMILES | activity, negative = inhibition | Potency | outcome
COC(=O)[C@H](Cc1ccc(OC)cc1)NC(=O)[C@H]1CN(S(=O)(=O)c2ccccc2)CCN1S(=O)(=O)c1ccccc1 | – | inconclusive: 4.47 µM [inhibitor, full curve, poor fit] | –
O=C(Cn1c(-c2cccs2)cc2cc(F)ccc21)N1CCN(c2cccc(Cl)c2)CC1 | – | inconclusive: 17.8 µM [inhibitor, single point] | –
Cc1ccc(C2=NC3(CCN(C(=O)c4ccncc4)CC3)ON2)cc1 | inactive: -24.5% | – | –
COc1ccc(-c2ccc3c(c2)C(=O)N2CC[C@H](NC(=O)CSC)[C@H]2C(=O)N3)c(OC)c1 | – | inconclusive: 3.98 µM [inhibitor, partial curve] | –
O=C(Nc1ccccc1)[C@@H]1C[C@@H](c2cccc(C(F)(F)F)c2)N(CC2CCOCC2)C1 | – | inconclusive: 5.62 µM [inhibitor, single point] | –
Cc1ccc(CCNc2nc3c(S(=O)(=O)c4ccccc4)nnn3c3ccsc23)cc1 | – | inconclusive: 10 µM [inhibitor, partial curve, poor fit] | –
O=C1CC(c2c(F)cccc2Cl)c2c(c3ccccc3oc2=O)O1 (centres undefined) | inactive: 53.2% | – | –
Cc1cccc(C)c1NS(=O)(=O)c1ccc2c(c1)[C@H]1C=CC[C@H]1[C@@H](c1ccc(Cl)cc1)N2 | – | inconclusive: 10 µM [inhibitor, partial curve, poor fit] | –
COCC1CN(C(C)=O)CC12CCN(Cc1cc(Cl)ccc1F)CC2 (centres undefined) | – | inconclusive: 20 µM [inhibitor, single point] | –
CN(C)CCNC(=O)c1cc2c(n1C)CCN(Cc1ccc(F)cc1)C2 | – | inconclusive: 6.31 µM [inhibitor, single point] | –
O=C1NC2(CCN(C(=O)C3CCCC3)CC2)COc2ccccc21 | inactive: -19.5% [at 44.1 µM] | – | –
CCN(C(=O)Cn1ccn2nc3c(c2c1=O)CCCC3)c1ccccc1 | inactive: -11.1% | – | –
COc1cccc(-c2cc(C(=O)Nc3ccc(Br)c(C)c3)[nH]n2)c1 | inactive: -25.9% | – | –
COc1ccc(-n2c(=O)c3ccc(C(=O)NCc4ccc(C)cc4)cc3n(Cc3cccc(Cl)c3)c2=O)cc1 | – | inconclusive: 17.8 µM [inhibitor, single point] | –
CCOC(=O)C1(Cc2ccccc2Cl)CCNCC1 | – | inconclusive: 1.41 µM [inhibitor, full curve, poor fit] | –
O=C(NCc1ccc(F)cc1)[C@H]1CN2CCC1C[C@@H]2Cn1cc(-c2ccccn2)nn1 (some centres undefined) | – | inconclusive: 12.6 µM [inhibitor, single point] | –
COc1ccccc1CNC1(Cc2cc(COc3ccccc3)on2)COC1 | – | inconclusive: 10 µM [inhibitor, partial curve] | –
Cc1cccc(CN2CCCN(S(=O)(=O)c3ccccc3)CCC(=O)NCC2)c1 | – | inconclusive: 17.8 µM [inhibitor, partial curve, poor fit] | –
CO[C@H]1[C@H](NC(=O)Cc2c[nH]c3ccccc23)c2ccccc2C12CCNCC2 | – | inconclusive: 8.91 µM [inhibitor, partial curve] | –
O=C(CCS(=O)(=O)c1ccccc1)N[C@H]1[C@@H]2CCO[C@@H]2[C@@H]1C1CCCC1 | inactive: -5.34% | – | –
CCC(C)NC(=O)C1COC2(CCN(C(=O)c3cccc(C)c3)CC2)N1C(=O)c1ccc(OC)cc1 (centres undefined) | – | – | inactive
COc1ccc(N2CCN(C(=O)c3ccc4c(=O)n(CCc5ccc(OC)c(OC)c5)c(=O)[nH]c4c3)CC2)cc1 | – | inconclusive: 12.6 µM [inhibitor, single point] | –

SMILES | activity, negative = inhibition | Potency | outcome
CNC(=O)c1onc(-c2ccc(Cl)cc2)c1[C@H](C)O | – | inconclusive: 39.8 µM [inhibitor, single point] | –
CN1CC(=O)N(c2ccc(Cl)cc2)Cc2c(NCC3CC3)ncnc21 | inactive: 7.82% | – | –
COc1ccc(-c2cn3c(n2)sc2cc(C(=O)NCCCN4CCCCC4)ccc23)cc1 | – | active: 1.12 µM | –
O=C(OCc1ccccc1)N1CCOCC12CCN(Cc1ccccc1)CC2 | – | inconclusive: 6.31 µM [inhibitor, full curve, poor fit] | –
O=C(c1ccc(Cl)cc1)N1CC2(CCCN(CC3CCCCC3)C2)Cc2ccccc21 (centres undefined) | – | inconclusive: 11.2 µM [inhibitor, single point] | –
O=c1[nH]c(N2CCOCC2)nc2c1CCN(Cc1cc(F)ccc1F)CC2 | inactive: -19.2% [at 5.79 µM] | – | –
CC(C)(C)OC(=O)N1CC(Nc2ccccc2O)C1 | – | inconclusive: 10 µM [inhibitor, partial curve] | –
NC(=O)[C@@H]1CN(C(=O)c2ccccn2)C[C@H]1COc1ccccc1 | inactive: 25.8% | – | –
COCc1nnc2n1CCC(NC(=O)C1CC=CC1)CC2 (centres undefined) | inactive: 37% | – | –
CCc1cccc2c(C(CC(=O)NCc3ccc4c(c3)OCO4)c3ccc(OC)c(OC)c3)c[nH]c12 (centres undefined) | – | active: 3.98 µM | –
O=C(C1CC1)N1[C@H]2CC[C@@H]1c1cnc(-c3ccc(F)cc3)nc1C2 | – | inconclusive: 17.8 µM [inhibitor, single point] | –
COc1ccc(OC)c(NC(=O)c2c(NCc3ccc(OC)c(OC)c3)sc3c2CCC3)c1 | – | active: 7.94 µM | –
Cc1ccc(NC(=O)c2cc3c(-c4ccccc4)nn(-c4ccccc4)c3s2)cc1 | – | active: 2.82 µM | –
COc1ccc(C(C)NC(=O)c2noc(-c3ccc(C)cc3)n2)cc1OC (centres undefined) | – | inconclusive: 11.2 µM [inhibitor, single point] | –
Cc1ccc(-c2cn3c(n2)sc2cc(C(=O)NC4CCCc5ccccc54)ccc23)cc1 (centres undefined) | – | inconclusive: 8.91 µM [inhibitor, partial curve, poor fit] | –
CCOCCCNC(=O)C1CCN(c2cc(C)nc3c(-c4ccc(Cl)cc4)c(C)nn23)CC1 | inactive: 28.5% | – | –
O=C(NCC(c1cccnc1)N1CCN(Cc2ccccc2)CC1)C(=O)Nc1ccc(F)cc1 (centres undefined) | – | inconclusive: 11.2 µM [inhibitor, single point] | –
Cc1cc(-c2nc(C3CCOC3)no2)c2ccccc2n1 (centres undefined) | inactive: 1.15% | – | –
COC(=O)c1ccccc1NC(=O)CSc1c2c(nc3ccc(Cl)cc13)CCCC2 | – | inconclusive: 10 µM [inhibitor, single point] | –
O=C(c1ccsc1)N1CCC(O)(c2ccccc2)[C@H](N2CCCC2)C1 (some centres undefined) | – | inconclusive: 2.51 µM [inhibitor, partial curve] | –
